In PubChem BioAssay AID651567 (National Center for Advancing Translational Sciences (NCATS), 2012):
About 10 (0.8%) of roughly 1,200 compounds were called active. Inconclusive results (about 4%) are left out. Calls follow the shape of the dose curve; as a rule, active = well fitted inhibition curve with a large enough effect; inconclusive = small, poorly fitted or top-dose-only effect; inactive = no such curve, though single readings can be large or run the other way. Some of the results follow.

Test: qHTS Assay to Find Inhibitors of Chronic Active B-Cell Receptor Signaling: Hit Validation in OCI-Ly3 Assay
Settings: OCI-Ly3 IkB-luciferase reporter, Chroma-Glo luminescence, 4 h; series mostly up to 46.1 µM; activity change, negative = inhibition: at the top concentration
From the text: Diffuse large B-cell lymphoma (DLBCL) is the most common category of non-Hodgkin lymphoma, with ~20,000 new cases per year in the United States. DLBCL should be regarded as a collection of different neoplasms. Microarray gene expression analysis has defined two principal types of DLBCL, named for their similarity to normal B cell stages or activation states: a germinal center B-cell (GCB) type, and an activated B-cell (ABC) type. In ABC-DLBCL, a constitutive high-level activity of the NF-kappaB family of transcription factors has been observed (1) and NF-kappaB target genes are more highly expressed in ABC primary tumors than in GCB tumors. Functional studies have shown a constitutive high-level activity of the IkappaB (inhibitor of kappa-B) kinase (IKK) complex. […] Further analysis of DLBCL primary tumors for NF-kappaB target gene expression imply that although CARD11 is required for constitutive IKK activity in all ABC-DLBCL lines, mutations in CARD11 may be the root cause of IKK activation only in lines or tumors with such mutations. In other words, CARD11 mutations may explain NF-kappaB activation in only 10% of ABC-DLBCL cases. […] This process has been termed 'chronic active BCR signaling' (CABS). The goal of this screen is to find small-molecule inhibitors of the CABS pathway found in ABC-DLBCL lines using a cell-based assay that measures IkappaBalpa stability, which has already been extensively validated in the OCI-Ly3 line (PubChem AID:445; REF: 4). […] Hits from the primary screen were tested in this selectivity secondary assay. NIH Molecular Libraries Probe Production Network [MLPCN] NIH Chemical Genomics Center [NCGC] MLPCN Grant: R03 DA031086 PI Name: Dr. R. Eric Davis
Cells were seeded in 1536-well plates at 5000 cells/3ul in IMDM medium containing 0.5% FBS, w/o phenol red, L-glutamine, 25 mM HEPES, 3 mg/ml sodium bicarbonate. After centrifugation for 1 min. at 1000 rpm, 23 nl of compounds or DMSO were delivered to each well using a pin tool. Then 1ul 80ng/ml doxycycline was dispensed into white solid 1536-well plates and the plates were incubated at 37C/5% C02 in a cell incubator for 4 hrs. Then 4 ul Chroma-Glo luminescent substrate mix (Promega) was added to each well. The plate was incubated at R.T. for 10-15 min. The plates were measured on a ViewLux plate reader for green luminescence (540/20 nm filter) and red luminescence (618/8 nm filter). The green and red luminescent signals were corrected for red and green luminescence filter overlap using previously determined filter calibration constants (determined using the procedure outlined in the Promega Technical Manual). The %Activity was determined from the ratio of corrected green/red luminescent values. Green luminescent and ratio %Activity was determined by normalizing to the difference in signal between basal cells (0% Activity) and cells incubated with 10 uM of the proteasome inhibitor MG-132 (100% Activity). Red luminescent %Activity was normalized to the difference between red luminesence in basal cells (0%Activity) and zero luminescence (-100% Activity). Concentration-response curves were fitted to the signals arising from the green luminescence (I-kappa-B-alpha-luciferase fusion; IkB-luc) and the red luminescence (unfused luciferase; luc) as well as the calculated ratio. The concentration-effect curves were then classified based on curve quality (r2), response magnitude and degree of measured activity. Compounds were then categorized based on their concentration-response curves for all three datasets (Ikb-luc, luc and ratio).
% is scaled to controls: 0 for no effect and ±100 for the full control effect.

SMILES | activity change, negative = inhibition
COc1ccc(COc2cc(-c3cccc(OC)c3)nc3ccc(N)cc23)cc1 | inactive: -8.19%
Cc1cc(Cl)ccc1OCCCC(=O)NO | inactive: -1.47%
Cc1ccc(S(=O)(=O)N2CCCCC2CCNC(=O)C(=O)NCc2ccccc2)cc1 (stereo not drawn) | inactive: -0.77%
OC(CNCc1ccc(-c2ccccc2)cc1)c1ccccc1 (stereo not drawn) | inactive: 0.251%
COc1ccc(N/C=C/C(=O)c2cc(OC)c(OC)c(OC)c2)cc1 | inactive: -3.76%
Cn1nc(C(F)(F)F)c(/C=N/OC(=O)c2ccccc2)c1Sc1ccc(Cl)cc1 | inactive: -1.12%
Cc1ccccc1NC(=S)N=Nc1c(O)n(C)c2ccc(S(=O)(=O)N3CCOCC3)cc12 | inactive: -18.4%
C=CCNC(=S)NN=C1CCCCCCC1 | inactive: -0.547%
O=C(CSc1cccc[n+]1[O-])c1cc(Cl)ccc1Cl | inactive: -6.48%
O=C(NCC(=O)N1CCCC(C(F)(F)F)C1)c1ccc(Oc2ccccc2)cc1 (stereo not drawn) | inactive: -1.11%
COc1ccc(OC)c(-c2cc(C(=O)Nc3c(C)nn(Cc4ccccc4)c3C)no2)c1 | inactive: -2.57%
CCOC(=O)c1[nH]c(C)c(C(=O)OCC)c1C | inactive: -0.576%
COc1cc(NC(=O)c2cc(C(C)C)on2)cc(OC)c1OC | inactive: -0.156%
CNC(=S)N/N=C1\C(=O)c2cccc3cccc1c23 | inactive: -16.6%
CCN(CC)c1ccc(-c2nn3c(-c4n[nH]c5c4CCC5)nnc3s2)cc1 | inactive: -7.08%
Fc1ccc(/C=N/NC(=S)Nc2cccnc2)cc1 | inactive: 0.501%
Fc1cccc2sc(Nc3nnc(-c4ccccc4)o3)nc12 | inactive: 21.3%
COc1ccc(C(=O)c2ccc(N(C)C)cc2)c2ccccc12 | inactive: -4.15%
COc1ccccc1CNC(=O)CSC(=S)N1CCCC1 | inactive: -0.636%
O=C(Nc1ncc(Cc2ccc(SC(F)F)cc2)s1)c1ccccc1 | inactive: -2.3%
COc1cc(/C(C)=N/NC(=S)NC(C)C)cc(OC)c1OC | inactive: -3.45%
COc1ccc(NS(=O)(=O)c2cc(-c3cnc(C4CC4)o3)ccc2C)cc1 | inactive: -1.39%
O=S1(=O)[C@H]2C[C@H](CO)O[C@@]2(CO)CN1Cc1ccc(-c2cccc(Cl)c2)cc1 | inactive: -0.904%
CCOc1cc(C(=O)N/N=C/C(Br)=C/c2ccccc2)cc(OCC)c1OCC | inactive: -11.1%
COc1ccc(-c2cnnn2-c2ccc(NC(=O)c3ccc(S(=O)(=O)N4CCCCC4)cc3)cc2)cc1OC | inactive: -2.07%
CCC1=Nc2cc(C(=O)NCCCOC(C)C)ccc2Sc2ccc(C)cc21 | inactive: -4.12%
CC(C)N=C(NS(=O)(=O)c1ccccc1)C(Cl)(Cl)Cl | inactive: -13.3%

SMILES | activity change, negative = inhibition
CCC(=C/c1sc2ccc3ccccc3c2[n+]1C)/C=C1\Sc2ccc3ccccc3c2N1C | inactive: -0.835%
CCOC(=O)C1=C(O)/C(=C/c2ccc(OCC(=O)O)c(OCC)c2)SC1=Nc1ccccc1 | inactive: -0.0931%
C=CCN(CC=C)C(=S)NC(=O)c1ccc(OC)cc1 | inactive: -0.681%
COc1ccccc1OCCCN1C(=O)C(=O)c2cccc(C)c21 | inactive: -1.49%
O=C(COc1ccc(-c2ccccc2)cc1)N1CCN(S(=O)(=O)Cc2ccccc2)CC1 | inactive: -0.659%
Cc1ccc(C)c(/C=C/C(=O)c2ccccc(=O)c2O)c1 | inactive: -19.2%
Cn1nnnc1N=N/C(=N/Nc1ccccc1)c1ccccc1 | inactive: -7.08%
COc1ccc(CC2(CO)CCN(Cc3cccc4nccnc34)CC2)cc1 | inactive: -0.257%
Cc1c(CCC(=O)N2CCC(C(=O)O)CC2)c(=O)oc2cc3oc4c(c3cc12)CCCC4 | inactive: 0.36%
COC(=O)c1ccc(Oc2cc(C)nc(-n3nc(C)cc3C)n2)cc1 | inactive: -2.62%
COc1ccccc1C1C2=C(COC2=O)Nc2cc3c(cc21)OCO3 (stereo not drawn) | inactive: -6.67%
O=[N+]([O-])/C=C/c1cc2ccccc2[nH]1 | inactive: -16.6%
Cc1cc(C)cc(N2CC(O)=C(c3nc4ccccc4c(=O)[nH]3)C2=N)c1 | inactive: 0.3%
Cc1nc(N2N=C(c3ccc(Cl)cc3)CC2c2ccco2)sc1C(=O)N(C)C (stereo not drawn) | inactive: -0.7%
COc1ccc(/C=C/C(=O)Nc2ccc(-n3nncc3-c3ccc(OC)c(OC)c3)cc2)cc1OC | inactive: -1.06%
Oc1[nH]c2c(Cl)cc(Cl)cc2c1N=NC(=S)NCC1CCCO1 (stereo not drawn) | inactive: -26.5%
CCOC(=O)c1c(C)n(C)c2ccc(OC)c(NC(=O)CN3CCC4(CC3)OCCO4)c12 | inactive: -0.0762%
CCc1cc2c(SCC(=O)NC3CC3)ncnc2s1 | inactive: -0.679%
S=c1nn[nH]n1C12CC3CC(CC(C3)C1)C2 | inactive: 0.0814%
CCOCCCNC(=O)c1ccc2c(c1)N=C(CC)c1cc(Br)ccc1S2 | inactive: -1.89%
Clc1ccc2nc(-c3ccccc3)nc(C(Cl)Cl)c2c1 | inactive: -3.4%
O=C(CSc1nnnn1-c1ccccc1)Nc1nsc(-c2ccc(Cl)cc2)n1 | inactive: -2.89%
COc1ccc(/C=C2\CCc3ccccc3C2=O)cc1O | inactive: 39.3%
NC(=S)N/N=C1\CC(c2ccc3c(c2)OCCCO3)Oc2ccc(F)cc21 (stereo not drawn) | inactive: -4.5%
CCOC(=O)C1=C(COC(=O)/C=C/c2ccc(O)c(OC)c2)NC(=O)NC1C (stereo not drawn) | inactive: -1.58%
COc1cccc(C(=O)Nc2cc(NC(=O)c3cccs3)ccc2C)c1OC | inactive: 0.529%
